Drawing on patent US6919377B2, “Cyclohexylamine derivative as subtype selective NMDA receptor antagonists” (Warner Lambert Company LLC, priority 2000, dated 2005), this text covers melting point for one compound.

Molecules are shown by their SMILES. Counter-ions that a name gives are not always drawn. Like-named read-outs stand apart in the source and are kept apart here. Some values that stand alone complete this part of the results.

In the case of `Oc1ccc([C@H]2CC[C@H](NCC#Cc3ccccc3)CC2)cc1` (as salt: maleate) [Example 23, Trans-4-[4-(3-phenylprop-2-ynylamino)cyclohexyl]phenol], the melting point runs as follows: (free base) 131 to 136 °C; (maleate salt) 171 to 179 °C.
